Experimental data from PubChem BioAssay AID2451 (National Center for Advancing Translational Sciences (NCATS), 2010).
“And” between values parts separate entries of the source, which are not always exact repeats. Equal values may be shown once. Screen size: about 290,000 compounds; about 2,100 (0.72%) were called active. The shares of active, inactive and inconclusive entries below differ from those in the screen. Calls follow the shape of the dose curve; as a rule, active = well fitted inhibition curve with a large enough effect; inconclusive = small, poorly fitted or top-dose-only effect, or effect the other way; inactive = flat fitted curve, though single readings scatter. A potency beside an inconclusive call is a rough fit, not a confirmed value.

Molecular target: Fructose-bisphosphate aldolase (Giardia intestinalis (strain ATCC 50803 / WB clone C6)) (UniProt A8B2U2)
UniProt A8B2U2, sequence (A8B2U2 whole entry, looked up): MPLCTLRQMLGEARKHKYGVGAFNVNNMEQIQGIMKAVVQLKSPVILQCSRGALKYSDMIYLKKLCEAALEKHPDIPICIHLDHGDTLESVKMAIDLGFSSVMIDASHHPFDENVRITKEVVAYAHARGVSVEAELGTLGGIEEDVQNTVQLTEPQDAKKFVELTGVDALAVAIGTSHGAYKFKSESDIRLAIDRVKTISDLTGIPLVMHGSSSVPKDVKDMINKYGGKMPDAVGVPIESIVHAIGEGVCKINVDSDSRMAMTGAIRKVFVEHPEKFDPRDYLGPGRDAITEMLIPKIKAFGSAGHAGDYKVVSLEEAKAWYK
Test: qHTS Assay for Inhibitors of Fructose-1,6-bisphosphate Aldolase from Giardia Lamblia; also: nearly all actives have a fitted effect of over 55% in size
Conditions: purified Giardia FBPA; activity, negative = inhibition: at 59.6 µM (top of the series) unless noted
Procedure, shortened: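 Giardia FBPA (40 nM reagent) was preincubated 10 min at RT with compound (up to 57.5 uM final), then substrate plus GAPDH/TPI/NAD/arsenate coupling system with diaphorase/resazurin was added; resorufin fluorescence (525/598 nm) was read after 20 min.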
% is scaled to controls: 0 for no effect and ±100 for the full control effect; potency is read from the fitted curve at half-maximal effect; tags tell the direction and shape of the fitted curve.

| Structure (SMILES) | Potency | activity, negative = inhibition |
| --- | --- | --- |
| CCCCn1c(NC(=O)c2ccccc2)nc2ccccc21 | inconclusive: 17.7 µM [activator, partial curve] | – |
| COCCCNC(=O)CC(=O)N/N=C\c1ccc(SC)cc1 | inconclusive: 19.9 µM [inhibitor, partial curve] | – |
| COc1ccc(C(=O)Nc2ccc(NC(=O)c3cc(OC)c(OC)c(OC)c3)cn2)cc1 | inconclusive: 31.6 µM [inhibitor, single point] | – |
| CSc1ncc(CN2CCCC(C(=O)c3ccc(C(C)(C)C)cc3)C2)cn1 (configuration not stated) | inactive | – |
| CCc1ccc(S(=O)(=O)Nc2cc(SCC(=O)O)c(O)c3ccccc23)cc1 | active: 4.46 µM | – |
| Cc1nc2c(Br)c3nc(C(F)(F)F)[nH]c3c(Br)c2[nH]1 | inconclusive: 7.92 µM [inhibitor, partial curve] | – |
| Cc1sc2c(c1C)CN(C(C)(C)C)CN2C(=O)c1ccccc1 | inactive | – |
| CC1=CC(C)(C)Nc2ccc(OC(=O)C(Cc3ccccc3)N3C(=O)C4CCCCC4C3=O)cc21 (configuration not stated) | inconclusive: 22.3 µM [inhibitor, partial curve] | – |
| Cc1ccc(NC(=O)CN2CCc3ccccc3C2)cc1F | inconclusive: 19.9 µM [inhibitor, partial curve] | – |
| O=C(Cn1c(NCCO)nc2ccccc21)c1ccccc1 | inactive | – |
| Cc1cc(OCCN2CCC(Cc3ccccc3)CC2)ccc1[N+](=O)[O-] | inconclusive: 17.8 µM [inhibitor, partial curve] | – |
| CC1CC(C)CN(S(=O)(=O)c2ccc(C(=O)N3CCN(c4ccccc4)CC3)cc2)C1 (configuration not stated) | inactive | – |
| CCOc1ccc(C(C)=O)cc1CSc1nnc(N)s1 | inactive | – |
| O=C(/C=C/c1ccco1)Nc1cccc2cccnc12 | inactive | – |
| CCOC(=O)c1cc2c(ccn2C)n1Cc1ccc(Cl)cc1 | inconclusive: 22.3 µM [inhibitor, single point] | – |
| COc1ccc(Nc2ccc(OC)cc2)cc1 | inconclusive: 11.2 µM [inhibitor, partial curve] | – |
| CC(C)c1nnc(N2C(=O)C(O)=C(C(=O)c3cccs3)C2c2ccccc2)s1 (configuration not stated) | inconclusive: 14.1 µM [inhibitor, partial curve] | – |
| Cc1ccc(OCCCCN2CCc3ccccc3C2)cc1 | inconclusive: 28.2 µM [inhibitor, partial curve] | – |
| COc1cc(-c2c(C#N)c(N)nc3[nH]c(=S)[nH]c(=O)c23)ccc1O | – | inconclusive: 36% [activator] |
| N[C@@H](CO)c1nnc([C@H](CCC(=O)O)NC(=O)C2CCNCC2)o1 | inactive | – |
| Cc1no[n+]([O-])c1COc1cccc(/C=N/Nc2nncn2N)c1 | active: 14.1 µM | – |
| COCCNC(=O)c1c(NC(=O)c2ccc(Br)o2)n(Cc2ccccc2)c2nc3ccccc3nc12 | inconclusive: 2.51 µM [inhibitor, full curve] | – |
| CSc1ccccc1NC(=O)c1noc2c1CCC2 | inconclusive: 17.7 µM [inhibitor, partial curve] | – |
| O=C(Nc1ccc(Cl)c(Cl)c1)Nc1cc(S(=O)(=O)N2CCOCC2)ccc1N1CCCC1 | inactive | – |

| Structure (SMILES) | Potency | activity, negative = inhibition |
| --- | --- | --- |
| CCC(=O)Nc1cc(C)c(NC(=O)C23CC4CC(CC(C4)C2)C3)cn1 | inconclusive: 15.8 µM [inhibitor, single point] | – |
| COCCCn1c(N)c(C(=O)OCCOC)c2nc3ccccc3nc21 | inconclusive: 22.3 µM [inhibitor, partial curve] | – |
| CCc1nn(C(C)C(=O)N2CCc3ccccc3C2)c(=O)c2cc3occc3n12 (configuration not stated) | inactive | – |
| Oc1oc(C=Nc2ccc(F)cc2F)c2ccccc12 | inactive | – |
| O=C(CNCc1ccccc1)Nc1cccc(Cl)c1Cl | active: 15.8 µM | – |
| Nc1nonc1-n1nnc(C(=O)N/N=C/c2ccccc2Cl)c1COc1ccc(F)cc1 | inconclusive: 15.8 µM [inhibitor, partial curve] | – |
| CCCCCCC(=O)CCCCCC/C=C/C[C@@H](O)[C@H](O)[C@@](N)(CO)C(=O)O | inconclusive: 15.8 µM [inhibitor, partial curve] | – |
| NS(=O)(=O)c1ccc(NNC(=O)c2sccc2Cl)cc1 | inconclusive: 35.4 µM [inhibitor, single point] | – |
| COc1cc(OC)cc(C(=O)N/N=C(\C)CC(=O)Nc2ccccn2)c1 | inconclusive: 10 µM [inhibitor, full curve, poor fit] | – |
| Cc1cc(NS(=O)(=O)c2ccc(NC(=O)Nc3cccc(C(F)(F)F)c3)cc2)no1 | inactive | – |
| COc1cc(CN2CCN(Cc3ccc(C)cc3)CC2)c([N+](=O)[O-])cc1OC | active: 5.61 µM | – |
| Fc1ccccc1CN1CCC(Cc2ccccc2)CC1 | inconclusive: 15.8 µM [inhibitor, partial curve] | – |
| CCC(CC)C(=O)Nc1cccc(C(=O)Nc2ccc3c(c2)OCO3)c1 | inactive | – |
| Nc1cc(-c2ccncc2)c[nH]c1=O | active: 3.54 µM and active: 3.97 µM and active: 1.77 µM | – |
| C=CC1=C2C=C(C3CC3)N(CCOC)C=C2C(=O)C(C)(OC(=O)c2ccco2)C1=O (configuration not stated) | inconclusive: 1.99 µM [inhibitor, partial curve] | – |
| CCc1nnc(NS(=O)(=O)c2ccc(NC(=S)Nc3ccc(F)cc3)cc2)s1 | inactive | – |
| CC(C)c1ccc(C(O)c2cnc(C(C)C)n2C)cc1 (configuration not stated) | inactive | – |
| O=C(O)COc1ccc(-c2nnn(Cc3ccccc3F)n2)cc1 | inconclusive: 15.8 µM [activator, partial curve] | – |
| Cc1ccc(-c2nn(CCC#N)cc2C=C(C#N)C#N)cc1 | inconclusive: 14.1 µM [inhibitor, partial curve] | – |
| Cc1cc(O)ccc1N/C=C(\C#N)c1nc2ccccc2o1 | inconclusive: 4.46 µM [inhibitor, full curve] | – |
| O=C(CN1CCCc2ccccc21)NC(=O)NCc1ccco1 | inconclusive: 15.8 µM [inhibitor, single point] | – |
| Oc1ccc(CN2CCCCC2)c2cccnc12 | inconclusive: 14.1 µM [inhibitor, partial curve] | – |
| COc1ccc(OC)c(S(=O)(=O)N(C)CC(=O)N2CCN(c3cccc(Cl)c3)CC2)c1 | inactive | – |
| Cc1ccc(-c2[nH]c(-c3ccccc3)nc2SCC(=O)NCC2CCCO2)cc1 (configuration not stated) | inconclusive: 19.9 µM [inhibitor, single point] | – |

| Structure (SMILES) | Potency | activity, negative = inhibition |
| --- | --- | --- |
| O=[N+]([O-])c1cc(CN2CCCCCC2)ccc1O | inconclusive: 28.2 µM [inhibitor, partial curve] | – |
| CN(C)[C@@H]1C(=O)C(C(N)=O)=C(O)[C@@]2(O)C(=O)C3=C(O)c4c(O)cccc4[C@@](C)(O)[C@H]3[C@H](O)[C@@H]12 | active: 4.46 µM | – |
| COc1cc(CC(=O)NCCCc2ccccc2)cc(OC)c1OC | inactive | – |
| COc1ccc(-c2nc(C(=O)NCCCN3CCOCC3)cc3c2[nH]c2ccccc23)cc1OC | inconclusive: 31.6 µM [inhibitor, single point] | – |
| COC(=O)CCCC1=CC2=CC(=O)C(C)(OC(=O)c3cccs3)C(=O)C2=CN1C1CC1 (configuration not stated) | inconclusive: 397 nM [inhibitor, full curve] and inconclusive: 630 nM [inhibitor, full curve] | – |
| COc1ccc(NC(=O)ON=C2c3ccccc3-c3ccccc32)cc1 | inconclusive: 4.46 µM [inhibitor, partial curve] | – |
| C#CCNC(=O)C1=C[C@H](c2ccc(C(F)(F)F)cc2)C[C@H](OCCCCO)O1 | inconclusive: 17.7 µM [inhibitor, partial curve] | – |
| O=C(Oc1ccc[nH]c1=O)c1cccc(Cl)c1 | inactive | – |
| C=CC1=C(C(=O)O)N2C(=O)[C@@H](NC(=O)C(N=O)c3csc(N)n3)[C@H]2SC1 (some centres not stated) | active: 15.8 µM | – |
| O=c1c2cn[nH]c2[nH]c(=S)n1-c1ccccc1F | active: 7.06 µM | – |
| O=C(NCCSC1CCCCC1)c1ccccc1 | inactive | – |
| CC1(C)C2CCC(C2)C1(C)NC(=O)CNCc1cccs1 (configuration not stated) | inconclusive: 19.9 µM [inhibitor, partial curve] | – |
| Cc1onc(-c2ccccc2)c1C(=O)N(Cc1ccco1)Cc1cccs1 | inconclusive: 15.8 µM [inhibitor, single point] | – |
| CCn1c(=O)c(C(=O)NCc2cccnc2)c(O)c2ccccc21 | inconclusive: 44.6 µM [inhibitor, single point] | – |
| Cc1cccc(CN2CCN(C(=O)Cc3ccccc3)CC2)c1 | inconclusive: 31.6 µM [inhibitor, partial curve] | – |
| CC(C)Cn1c2c(c(=O)[nH]c1=O)C(C(F)(F)F)(C(F)(F)F)N=C(CCC1CCCCC1)N2 | inactive | – |
| COc1ccc(CN(C)CC(=O)Nc2ccc(Cl)cc2F)c(OC)c1 | inconclusive: 17.7 µM [inhibitor, partial curve] | – |
| CC1CCCC(C)N1/N=C/c1ccc(O)c(O)c1 (configuration not stated) | inconclusive: 39.8 µM [inhibitor, single point] | – |
| S=C(Nc1ccc(Cl)cc1)Nc1cccc2cnccc12 | active: 1.58 µM | – |
| COc1cccc(-c2cc(C(=O)Nc3ccc4c(c3)OCCO4)c3ccccc3n2)c1 | inconclusive: 17.8 µM [activator, partial curve] | – |
| O/N=C1\CC/C(=N\O)c2nn(-c3ccccc3Cl)nc21 | inactive | – |
| COc1ccc(N2CCN(C(C)C(=O)N3CCCC3)CC2)cc1 (configuration not stated) | inconclusive: 15.8 µM [inhibitor, partial curve] | – |
| C=CC1=C2C=C(C3CC3)N(CCCCO)C=C2C(=O)C(C)(OC(=O)c2ccco2)C1=O (configuration not stated) | inconclusive: 0.251 µM [inhibitor, full curve] | – |
| COc1cc(CN2CCN(C(O)(c3ccccc3)c3ccccc3)CC2)cc(OC)c1OC | inconclusive: 25.1 µM [inhibitor, partial curve, poor fit] | – |
